Measured values published in PubChem BioAssay AID624417 (National Center for Advancing Translational Sciences (NCATS), 2012).
“And” between values parts separate entries of the source, which are not always exact repeats. Identical values can stand only once. Hit rate of the full screen: of about 410,000 compounds, about 6,400 (1.6%) were called active. The inconclusive results got no clear call from the source; some entries with a clear call stand among them for comparison. Calls come from the whole dose curve; as a rule, active = well fitted inhibition curve with a large enough effect; inconclusive = small, poorly fitted or top-dose-only effect; inactive = no such curve, though single readings can be large or run the other way. A potency beside an inconclusive call is a rough fit, not a confirmed value.

Biological target: Glucagon-like peptide 1 receptor (Homo sapiens) (UniProt P43220)
Sequence of UniProt P43220 (P43220 whole entry, looked up): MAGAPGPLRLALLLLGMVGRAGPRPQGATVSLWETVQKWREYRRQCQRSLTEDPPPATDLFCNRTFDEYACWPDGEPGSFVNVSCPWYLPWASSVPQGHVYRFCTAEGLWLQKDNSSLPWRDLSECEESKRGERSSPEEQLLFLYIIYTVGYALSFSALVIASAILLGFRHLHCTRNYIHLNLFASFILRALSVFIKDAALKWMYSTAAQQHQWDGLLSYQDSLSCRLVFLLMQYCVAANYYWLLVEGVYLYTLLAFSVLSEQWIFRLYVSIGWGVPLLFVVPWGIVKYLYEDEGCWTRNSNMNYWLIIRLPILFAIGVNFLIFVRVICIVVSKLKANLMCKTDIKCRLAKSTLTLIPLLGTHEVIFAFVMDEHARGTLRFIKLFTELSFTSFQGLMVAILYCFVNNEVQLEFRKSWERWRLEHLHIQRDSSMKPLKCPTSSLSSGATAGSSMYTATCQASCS
Assay: qHTS of GLP-1 Receptor Inverse Agonists (Inhibition Mode); note: nearly all actives have a fitted effect of over 55% in size
Conditions: HEK293 GLP-1R CRE-luciferase, luminescence, 24 h, GLP-1R form is constitutively active; series mostly up to 38.3 µM
Outline: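 qHTS in 1536-well format: reporter HEK293 cells expressing constitutive GLP-1R activity in DMEM + 10% Nu serum, 24 hr with compounds at 37 deg C, luminescence read after 12 min with detection reagent.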
Potency is the fitted concentration of half-maximal effect; tags give direction and shape of the fitted curve.

| Compound | Potency |
| --- | --- |
| COc1ccc(CCNC(=O)c2ccc(N(C)S(=O)(=O)c3ccccc3)cc2)cc1 | inconclusive: 8.91 µM [inhibitor, partial curve, poor fit] |
| CCCN(CC1CC1)C(=S)NC(=O)c1ccccc1Br | inconclusive: 3.55 µM [inhibitor, full curve, poor fit] |
| CCOC(=O)N1CCC(NC(=O)CSCc2cnn(-c3ccccc3)c2-n2cccc2)CC1 | inconclusive: 3.55 µM [inhibitor, partial curve, poor fit] |
| COc1ccc(CN2C(=O)N(c3ccc(F)cc3)C(=O)C2CC(=O)Nc2cc(OC)cc(OC)c2)cc1 (stereo not drawn) | inactive |
| CCc1ccc(NC(=O)C(NS(=O)(=O)c2cccc3nsnc23)c2ccccc2)cc1 (stereo not drawn) | inconclusive: 2.24 µM [inhibitor, partial curve, poor fit] and inconclusive: 10 µM [inhibitor, partial curve, poor fit] |
| NS(=O)(=O)c1cc(C(=O)Nc2ccc3c(c2)CCC3)ccc1Cl | inconclusive: 28.2 µM [inhibitor, single point] |
| Cc1ccccc1CSCCC(=O)NCCc1ccccc1 | inconclusive: 10 µM [inhibitor, partial curve, poor fit] |
| O=C(c1ccc(-n2cnnn2)cc1)N1CCN(C(c2ccccc2)c2ccccc2)CC1 | inconclusive: 14.1 µM [inhibitor, partial curve, poor fit] |
| O=C(Cn1nc(C(F)(F)F)c2c1CCC2)Nc1ccccc1C(F)(F)F | inconclusive: 28.2 µM [inhibitor, single point] |
| O=C(/C=C/c1cn(-c2ccccc2)nc1-c1cccnc1)c1ccco1 | inconclusive: 28.2 µM [inhibitor, single point] |
| Cc1ccc(S(=O)(=O)CC(CN2CCCCC2)N2CCCCC2)cc1 (stereo not drawn) | inactive |
| O=C(COC(=O)C12CC3CC(CC(C3)C1)C2)Nc1nc2c(F)c(F)c(F)cc2s1 | inconclusive: 0.891 µM [inhibitor, full curve] |
| O=C(Cc1ccc([N+](=O)[O-])cc1)Nc1cc(C(F)(F)F)cc(C(F)(F)F)c1 | inconclusive: 3.55 µM [inhibitor, partial curve] |
| CCOC(=O)c1cccc(NC(=O)CSc2nnc(-c3ccoc3C)n2CC)c1 | inconclusive: 10 µM [inhibitor, single point] |
| Cc1nn(C(=O)COc2ccccc2Br)c(C)c1Sc1ccccc1 | inactive |
| COc1ccc(CCN2C(=O)N(c3ccc(C)cc3)C(=O)C2CC(=O)Nc2ccc(F)cc2)cc1 (stereo not drawn) | active: 7.94 µM |
| O=C(CS(=O)c1ccc(C(F)(F)F)cc1[N+](=O)[O-])Oc1ccccc1 (stereo not drawn) | inconclusive: 28.2 µM [inhibitor, single point] |
| O=C(N/N=C\C=C\c1ccco1)c1cncc(Br)c1 | inactive |
| CCn1nc(C(=O)Nc2cccc3ccccc23)c(Cl)c1Cl | inconclusive: 14.1 µM [inhibitor, single point] |
| Cc1ccc(C(=O)OCC(=O)c2c[nH]c3ccccc23)cc1NC(=O)c1ccco1 | inconclusive: 28.2 µM [inhibitor, single point] |
| CC(CNC(=O)c1cc(-c2ccccc2)n[nH]1)c1ccccc1 (stereo not drawn) | inconclusive: 2.82 µM [inhibitor, single point] |

| Compound | Potency |
| --- | --- |
| O=C(Cn1cc2c(n1)CCCCC2)Nc1c(F)cc(F)cc1Br | inconclusive: 2.51 µM [inhibitor, single point] |
| C[C@H](c1ccccc1)n1nnc(COCc2ccccc2)c1C#CCOCc1ccccc1 | inconclusive: 28.2 µM [inhibitor, single point] |
| COc1ccc(OCCN(C)Cc2c(O)ccc3ccccc23)cc1 | inconclusive: 5.62 µM [inhibitor, partial curve] |
| Cc1ccc(S(=O)(=O)c2c(Nc3cc(C)ccc3C)sc(C(=O)c3ccc4c(c3)OCO4)c2N)cc1 | inconclusive: 3.16 µM [inhibitor, full curve, poor fit] |
| COc1ccc(Oc2nc(SC)nc3ccsc23)cc1 | inconclusive: 28.2 µM [inhibitor, single point] |
| CC(C)(C)c1ccccc1NC(=O)Nc1nc(C(N)c2ccccc2Cl)cs1 (stereo not drawn) | inconclusive: 15.8 µM [inhibitor, single point] |
| CCN(CC(=O)NC(=O)NC1CCCC1)Cc1ccccc1 | inconclusive: 28.2 µM [inhibitor, single point] |
| Cc1c(Cl)cccc1NC(=O)C(CCS(C)(=O)=O)N1Cc2ccccc2C1=O (stereo not drawn) | inactive |
| O=C(O)CC/C(=C\c1cccc(NC(=O)c2ccccc2Cl)c1)c1nc2ccccc2s1 | inactive |
| CCOc1ccc(CCNC(=O)COC(=O)c2ccc(C)c(S(=O)(=O)N3CCOCC3)c2)cc1OCC | inactive |
| COc1cccc(OC)c1OCCOc1ccccc1OC(C)C | inconclusive: 17.8 µM [inhibitor, partial curve, poor fit] |
| COc1ccc(-n2nnc(-c3nsc(NC(=O)c4cccs4)n3)c2C)cc1OC | inactive |
| O=C(CSc1nnc(COc2ccccc2)n1Cc1ccco1)c1ccc(F)cc1 | inconclusive: 10 µM [inhibitor, partial curve, poor fit] |
| COc1cccc(C(=O)NCC(c2ccc(N(C)C)cc2)N2CCc3ccccc32)c1 (stereo not drawn) | inactive |
| COc1ccc(/C=N/NC(=O)c2ccncc2)cc1Cn1nc([N+](=O)[O-])c(Br)c1C | inconclusive: 22.4 µM [inhibitor, single point] |
| COc1cccc(NC(=O)CCN2CCN(c3ccccc3)CC2)c1 | inconclusive: 22.4 µM [inhibitor, single point] |
| COc1ccc(CC2(CO)CCN(Cc3ccc4c(c3)CCO4)CC2)cc1 | inconclusive: 11.2 µM [inhibitor, partial curve, poor fit] |
| O=C(c1ccc(O)c(Br)c1)c1cc(Br)ccc1O | inconclusive: 14.1 µM [inhibitor, single point] |
| Cc1ccc(C(=O)N/C(=C\c2cn(S(=O)(=O)N(C)C)c3ccccc23)C(=O)NCCN2CCOCC2)cc1 | inconclusive: 7.08 µM [inhibitor, partial curve, poor fit] |
| CC(C)OC(=O)/C(=C/c1ccc(Br)cc1)NC(=O)c1ccco1 | inconclusive: 10 µM [inhibitor, single point] |
| CCOc1ncccc1C(=O)OCC(=O)c1cc(C)n(Cc2ccco2)c1C | inconclusive: 14.1 µM [inhibitor, single point] |

| Compound | Potency |
| --- | --- |
| CCc1ccccc1OCC(=O)Nc1cccc(S(=O)(=O)NCc2ccco2)c1 | inconclusive: 11.2 µM [inhibitor, partial curve, poor fit] |
| Clc1ccccc1N/N=C/c1ccc2c(c1)OCO2 | inconclusive: 28.2 µM [inhibitor, single point] |
| Cc1c(C(=O)N2c3ccccc3CC2C)oc2ccccc12 (stereo not drawn) | active: 10 µM |
| C/C(=N\NC(=O)c1cccs1)c1ccc(C(=O)O)s1 | inactive |
| O=S(=O)(c1ccccc1)N1CCN(Cc2cc3c(cc2Br)OCCO3)CC1 | inconclusive: 5.62 µM [inhibitor, partial curve, poor fit] |
| C=CCC[C@H](Cc1ccc(F)cc1)C(=O)OC[C@H](C)NC(=O)[C@@H](CC=C)CC(=O)N[C@H](CO)Cc1ccccc1 | inconclusive: 28.2 µM [inhibitor, partial curve, poor fit] |
| CC(Oc1ccc(Br)cc1)C(=O)N(Cc1ccccc1)c1c(N)n(Cc2ccccc2)c(=O)[nH]c1=O (stereo not drawn) | inactive |
| COc1cccc(NC(=O)CN(C)CC(=O)Nc2ccccc2-c2ccccc2)c1 | inconclusive: 10 µM [inhibitor, partial curve, poor fit] |
| CC(O)(c1cccc(F)c1)c1nc(-c2cccc(C(F)(F)F)c2)cs1 (stereo not drawn) | inconclusive: 28.2 µM [inhibitor, single point] |
| Cc1ccccc1C(=O)Nc1ccc(OCc2cc(=O)n3ccccc3n2)cc1 | inactive |
| CCCCCCCCCCCCCCC(O)C[N+](C)(CCO)CCO (stereo not drawn) | inconclusive: 2.24 µM [inhibitor, full curve, poor fit] |
| CC(=O)c1cccc(Nc2nc(-c3cccc(C)c3)nc3ccccc23)c1 | inconclusive: 1.26 µM [inhibitor, full curve, poor fit] |
| CC(C)CCNC(=O)CCS(=O)(=O)c1cccc2nonc12 | inactive |
| OCCNCc1cc(Br)ccc1OCc1ccc(F)cc1 | inconclusive: 8.91 µM [inhibitor, partial curve, poor fit] |
| Cc1ccc2nc(-c3ccc(O)cc3)c(Nc3ccc(Cl)cc3)n2c1 | inconclusive: 11.2 µM [inhibitor, partial curve, poor fit] |
| CCOc1ccc(NC(=O)CSC2=C(C#N)C(c3ccc4c(c3)OCO4)CC(=O)N2)cc1 (stereo not drawn) | inconclusive: 11.2 µM [inhibitor, partial curve, poor fit] |
| Cc1cccc(COC(=O)Nc2ccc(NC(=O)c3ccccc3Cl)cc2)c1 | inconclusive: 8.91 µM [inhibitor, partial curve, poor fit] |
| O=C(CCn1c(=O)oc2ccc(Cl)cc21)N1CCN(Cc2ccccc2)CC1 | inconclusive: 5.01 µM [inhibitor, partial curve, poor fit] |
| COc1cc(NC(=O)c2cc3c(s2)-c2ccccc2OC3)cc(OC)c1OC | inconclusive: 10 µM [inhibitor, single point] |
| CCCc1cc(=O)[nH]c(SCC(=O)N2CCN(c3ccccc3OC)CC2)n1 | inactive |
| COc1cc(OC)cc(-c2sc3ccc(OC)cc3c2-c2ccc3cc[nH]c3c2)c1 | inconclusive: 8.91 µM [inhibitor, partial curve, poor fit] |
